# From the supplement of paper PMC10185492
# Some of the results follow. Values come from read counts of a selection and are noisy.
# Test system: SARS-CoV-2 3CLpro (nsp5)
# Assay: substrate phage enrichment score (protease-eluted vs HEPES control, +1 offset) (ratio); higher = better cleaved substrate
# Settings: selection round: 3; protease elution time: 0.5 h
# Description: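 Random heptapeptide substrate phage display (M13 pIII fusion, heptapeptide between an N-terminal biotinylated AviTag GLNDIFEAQKIEWHE and pIII; phages immobilised on streptavidin) eluted by cleavage with 50 nM protease in 20 mM HEPES at 37 °C. Selected phages were NGS sequenced, and the enrichment score is (reads in protease sample + 1)/(reads in HEPES blank-selection control + 1).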
row,Substance,substrate phage enrichment score
1,SRPAQLQ,8.33
2,TCIPIIQ,8.25
3,KETQETE,9
4,RSVPQAE,> 63
5,EHGKLRS,> 25
6,NAHPTLQ,> 59
7,SSARRPG,4.54
8,VNSAGQR,4.91
9,GTAAAHH,0.91
10,GRSSSDM,3
11,ESGARLG,97
12,SERTLKC,1.68
13,SNGTRTV,0.294
14,RVTLHGR,> 33
15,RHLVSKP,10
16,KRGNAAA,3
17,KCSHPSR,> 29
18,PPKAQSG,2.71
19,VPQNAGT,3.83
20,PLVGTHT,> 25
21,AQSDEIP,5
22,QAAAHHH,1.22
23,SRAAHHH,0.786
24,PYVSPGP,> 23
25,VNGNDLQ,1.75

row,Substance,substrate phage enrichment score
1,RTEPAAH,> 34
2,FISPSKQ,10
3,TDRSHSR,> 26
4,TGCKQEK,> 30
5,HGTSALQ,> 23
6,RHHHHGA,0.438
7,ACMTVPG,> 21
8,HFQGGSA,2.25
9,NSAAAHH,0.887
10,SVPTAHH,> 25
11,GVSQPHH,2.3
12,NWAAHHH,0.929
13,RYQELNP,> 35
14,CSTLLQS,> 138
15,VRPHNII,2.03
16,NRNAGIE,> 39
17,QTGWCSD,1.35
18,VSCSSCN,> 38
19,NSHLPMK,1.44
20,LKDRNLT,3.83
21,YSAAHHH,0.61
22,RPGHVQI,> 22
23,TSSRENR,> 34
24,PGLGSMA,> 43
25,TKPGESP,1.75

row,Substance,substrate phage enrichment score
1,RYIQSTT,8.5
2,ACAAAHH,0.391
3,NRGGLKQ,16
4,TNKWNVG,5.25
5,VQTRLQS,31
6,NATAHHH,2.58
7,TPCRLQH,> 22
8,HWTREYG,> 26
9,CTGYCYS,4.8
10,GDEMNPA,2.86
11,YDVQKIR,0.947
12,SATQTTS,10.3
13,KYAPSSS,> 26
14,LHFQGGS,1.36
15,RPAASRQ,2.83
16,AKRGELR,2.69
17,HRAGYMH,2.2
18,AHATFEL,> 21
19,IRSGDKQ,> 24
20,PKLQSHQ,> 24
21,CVHATSS,6.6
22,ASTSWVK,2.8
23,SAAAHHR,1.2
24,VMWCLHG,> 26
25,ETAAHHH,1.74

row,Substance,substrate phage enrichment score
1,ESEQMSP,1.56
2,STAHHHH,0.84
3,SWAAHHH,1.29
4,QSPNSSG,> 33
5,NTAAHHH,1.03
6,RGCTWSE,> 62
7,VAKPQST,4.5
8,IKAAHHH,0.85
9,AYKATLQ,> 38
10,SRVKAHT,2.14
11,LEFDLTT,> 21
12,FPAAHHH,1.36
13,ECKVQLN,11.7
14,KPFPQPR,1.3
15,RDACFLT,1.9
16,TDLNGTQ,> 27
17,GDKAVMH,> 42
18,RGIVMQS,10.7
19,MSTRLQC,> 79
20,RAPTAAD,26.5
21,GLPASRL,> 21
22,NQWNEGY,> 25
23,RVVVRPH,1.44
24,AESMESR,> 26
25,SQTSRMQ,10.5

row,Substance,substrate phage enrichment score
1,VKCPGTD,4.5
2,ELYFQGG,0.977
3,GCTLPRS,17
4,INSGPLR,30
5,SPAHHHH,1
6,MYFQGGS,1.29
7,NKPVRLH,> 28
8,KKQSIMG,> 21
9,EELREVH,1
10,VAQLEAR,0.923
11,SDAAHHH,1.86
12,NYVTRLQ,> 48
13,AGAAAHH,0.667
14,VRCCCPV,0.211
15,KTGDGCV,0.75
16,AKCQTPR,> 32
17,MNHGVLQ,> 30
18,DDKSLLH,2.53
19,HMSNHHH,> 21
20,GIYDMRD,1
21,RDAAHHH,0.583
22,WCTVSDR,> 44
23,HRHIGEQ,11.3
24,SEQLSAP,0.957
25,CERFQGY,1.43

row,Substance,substrate phage enrichment score
1,STRVLRC,8.33
2,PRTQMSR,11.5
3,ASQAALQ,> 30
4,NKAAHHH,1.37
5,DCWTDRD,0.929
6,AAAHNHH,1.18
7,ARERVPG,> 36
8,HQPIHAP,> 21
9,ARCVLQY,> 22
10,AIRFEGD,0.667
11,AGHVNLQ,29.5
12,MTSDLVG,7.33
13,AGVSKLH,> 48
14,KPSSLQS,34.8
15,DKVNESR,2.73
16,RSHSTVQ,> 35
17,TGGSAAA,0.583
18,LYYQGGS,1.2
19,GRAAHHH,1.3
20,VMFQADF,> 28
21,FKPLAHK,4.17
22,RHLTGGQ,1.78
23,AARLQCS,> 67
24,HHHGELR,33.7
25,TYLQGGS,74.5

row,Substance,substrate phage enrichment score
1,TDHDRQY,4.83
2,NSFTTLQ,> 22
3,WCHQEFP,> 25
4,VLSPQTK,> 30
5,PQVEQPY,6.33
6,NKPDLIW,> 22
7,HTKPAAR,12
8,HKRCQFW,3.86
9,HGNSAGS,1.82
10,VSRDPAP,> 51
11,HFSEFGR,> 53
12,PQLKSLD,1.62
13,PGSQMHC,1.76
14,ESRGMPN,4.4
15,PGQTCRR,0.906
16,VSFQGGS,2.57
17,DRAGTDH,0.737
18,KGGSAAA,1.24
19,GQAAHHH,1.27
20,RAKCTYH,> 25
21,SKLQGAN,18.5
22,CVPTAKG,1.9
23,IKHELSC,2
24,GAKVQLQ,> 25
25,CSKETRG,> 22

row,Substance,substrate phage enrichment score
1,WGAPTSK,> 24
2,QGRSSTT,1.3
3,SKLPVSS,> 26
4,RKEAIAP,> 26
5,ERNCRLQ,> 33
6,IAAAHHH,1.02
7,RCRHLEA,3
8,TDSTSAN,> 30
9,APDRASC,> 26
10,NAVLHGQ,> 24
11,LPNFQGG,13.5
12,SKKSSHE,1.18
13,TNLSNSL,4.83
14,AKLTPEH,0.619
15,ADAHHHH,0.533
16,RLPTVFE,1.96
17,QNLMCHY,4.57
18,SQGGSAA,0.73
19,ARGVHLQ,> 52
20,HGTNVFR,> 31
21,ASNPASL,6.33
22,VANTYGC,26
23,RTLSPLT,> 22
24,AGTPRAK,> 23
25,SDRVWLQ,> 31

row,Substance,substrate phage enrichment score
1,RDIRHSR,> 29
2,PQVIEQH,2.19
3,EMYFQGG,0.739
4,LISDNLP,> 31
5,NATQPTR,3.5
6,SIEHFQG,7
7,WPPVQLQ,> 94
8,GGAAHHH,0.75
9,VPDKSSR,6.67
10,ESASILQ,> 134
11,LVTPWSH,1.75
12,TPTAASQ,> 28
13,FDQKKAP,1.5
14,AECCGMP,> 32
15,CSPRSRP,> 35
16,SGNSRLN,> 36
17,ISAPEAH,1.5
18,AGGCVRD,0.412
19,GYHASCQ,0.588
20,CKLQCSN,> 21
21,QVPVSMH,42
22,PTDVGAR,> 23
23,TQMCPRP,2.57
24,AWPSVVP,> 61
25,QIQCATQ,18.5

row,Substance,substrate phage enrichment score
1,QEPAMTA,0.706
2,AIAAPFR,> 22
3,DSDQKLI,11.5
4,RAVPASM,> 25
5,KHGDAYT,> 23
6,YPSESMK,> 36
7,SDCLTDR,3.57
8,THERTDT,1.79
9,RHLNALQ,> 42
10,LSAAAHH,0.588
11,VSGQNLG,2.17
12,WRASYNE,> 23
13,SGQVRQC,1.94
14,PGAAHHH,0.971
15,HPAVLHR,21
16,PEAAHHH,1.03
17,RMTSALD,> 29
18,RVSAHHH,3.6
19,ETQSMFR,1.77
20,RCKSEGI,> 29
21,GSAAAQH,0.9
22,ENDVIHR,1.5
23,KGCCLQA,> 74
24,LTLEFSH,> 21
25,CRVCMHR,3.29

row,Substance,substrate phage enrichment score
1,ECQIGCP,0.0769
2,LGNPVQP,> 23
3,QQPGDRD,4
4,PLTGDIR,> 52
5,NSMNTPC,> 39
6,LSNAGQT,5
7,QTLCCKW,1
8,ARHCAGC,0.5
9,EHGWAFC,8.33
10,PACAASC,> 36
11,LNGNKRD,> 26
12,NGRSNQR,1.89
13,AVLQSGR,> 30
14,IKCETLQ,> 45
15,SAAAHNQ,0.769
16,RHVKAQA,> 26
17,VGRSTCL,1.38
18,CPLLHRQ,0.304
19,DCRPDPR,6
20,EASRNQK,1.25
21,RKQSTLQ,> 42
22,AYNLSGP,> 39
23,SAAAQQH,1.18
24,IAIRHSW,5
25,QRHSCML,0.85

row,Substance,substrate phage enrichment score
1,GCAAAHH,0.915
2,SPGQATE,> 21
3,TGACPLR,> 32
4,PKSASSE,5
5,NGTRSRQ,1.88
6,SWDGVTE,> 21
7,CVLGETT,12.5
8,EVWIDET,> 35
9,LELHSQR,2.67
10,GSQPDYY,3
11,TGRCHRQ,3.6
12,LTSPLTT,2
13,KGPQMSR,> 28
14,LKCMQKH,> 35
15,RDGSEAH,> 36
16,PGNGTLS,1.81
17,RRDSARL,> 28
18,RPTTVLR,> 25
19,SLLQSKQ,> 70
20,PKACLTT,9.29
21,QSAPKSW,> 27
22,GCTPGQL,> 23
23,PAVHMQG,4.5
24,SEHAAKY,> 22
25,LCSTACG,1

row,Substance,substrate phage enrichment score
1,YPVNMQV,> 24
2,VTDFGLR,1.07
3,VEDQPGT,2
4,RTRGQFG,7.33
5,QRSGACR,8.67
6,SHRHGSR,> 26
7,LPRLRLQ,9.33
8,FSAAAHH,1.75
9,ARHVACG,10
10,STLSILQ,> 22
11,TTLQSDR,> 22
12,TSGFENR,14
13,SAGAHHH,0.562
14,ETSSVPD,13
15,EPQVNGQ,4.6
16,YKAAHHH,16
17,GHREEAA,4.29
18,QVQNQRP,> 24
19,YRDPGRR,3.67
20,VRPHLII,1.8
21,PGRWTTG,> 21
22,SAAAQQQ,0.889
23,INDLADG,> 56
24,SHDSNLM,> 29
25,HLNPEPI,4.83

row,Substance,substrate phage enrichment score
1,PSNTTAH,1.33
2,LKARSQH,3.4
3,SQPARDC,4
4,AQREQQM,6.25
5,SKAEERT,> 22
6,PHGMPHR,> 56
7,NSKTESD,0.421
8,AGCSVCA,7.6
9,SNPRELT,> 32
10,ATNMYAP,> 29
11,GAAAQHH,0.833
12,TQLQGFQ,> 25
13,CKTKCAL,2.91
14,CVCRLFV,> 25
15,SAAAPHH,1.06
16,QENKLPG,> 25
17,LTLEHSN,7.33
18,VEAAHHH,1.17
19,ERHCRAY,> 34
20,HPGVEDG,15
21,CRWPVKS,6
22,NSQDARA,3.44
23,PANSTLQ,14.5
24,RASVRLT,> 44
25,TRRTTLQ,> 145

row,Substance,substrate phage enrichment score
1,EHDLKPL,18
2,ELTNESN,3.09
3,VYNLKSN,> 43
4,QGHHVSC,> 80
5,TTTHMNL,7.67
6,GQPCIYS,2.25
7,ITSPAGM,3.12
8,LNKLQSN,> 21
9,ASESSLQ,9.43
10,KPRIEQE,> 30
11,TADNPPE,> 27
12,AAHHHHH,0.777
13,VLYFQGG,2.22
14,CGVRTGG,2
15,THNERGR,11.2
16,CRTYMTT,1.17
17,MRRPIAQ,1.89
